Laboratory results from PubChem BioAssay AID1240 (Sanford-Burnham Center for Chemical Genomics, 2008).
The campaign covered roughly 50,000 compounds. About 800 (1.6%) showed an effect of 50% or more. The list shows a part of the results.

Target: Bcl-2-like protein 10 (Homo sapiens) (UniProt Q9HD36)
Assay: Phenotype converters, Bcl-B/TR3 peptide binding displacement, primary biochemical FP (AID 1240);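 note: 0% = Bcl-B with tracer peptide and DMSO and 100% = tracer peptide lacking Bcl-B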
Conditions: GST-Bcl-B / FITC-TR3 peptide fluorescence polarization; stronger effect = higher value; compound at 3.75 mg/L

Sequence of UniProt Q9HD36 (Q9HD36 whole entry, looked up): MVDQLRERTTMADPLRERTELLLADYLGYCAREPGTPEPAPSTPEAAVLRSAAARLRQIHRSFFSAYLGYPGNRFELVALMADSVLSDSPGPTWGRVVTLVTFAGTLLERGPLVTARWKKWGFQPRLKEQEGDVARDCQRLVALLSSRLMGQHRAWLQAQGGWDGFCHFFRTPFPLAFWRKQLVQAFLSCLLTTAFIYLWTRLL

Row | SMILES | displacement [%]
1 | COc1ccc(C(=O)Nc2cc(-c3nc4cc(Cl)cc(Cl)c4o3)ccc2C)cc1 | -0.9
2 | CC1CC(Nc2ccccc2)c2ccccc2N1C(=O)c1sc2ccccc2c1Cl (centres undefined) | 0.4
3 | O=C1/C(=C\c2ccccc2OS(=O)(=O)c2ccccc2)SC(=S)N1c1ccccc1 | -6.6
4 | COc1cc(OC)cc(C(=O)N/N=C(\C)CC(=O)Nc2ccccc2-c2ccccc2)c1 | -44.2
5 | COc1ccc2c(c1OC)C(=O)N(c1ccc(NC(C)=O)cc1)C2=O | -13.2
6 | CC(C)(C)c1ccc(OCC(=O)Nc2ccccc2-c2ccccc2)cc1 | 6.1
7 | CC(C)n1nc(CC(=O)O)c2ccccc2c1=O | -0.4
8 | O=[N+]([O-])c1ccc(Cl)cc1NC(c1ccccc1)c1ccccc1 | -4.6
9 | Cc1cc(O)c2c(C)c(Cc3ccccc3)c(=O)oc2c1 | 6.9
10 | COC(=O)c1c(N)sc(C)c1-c1cccc(Cl)c1 | -5.5
11 | CCc1ccc(-n2[nH]c(=O)c(/C=C3\C(=O)N(c4ccccc4)N=C3C)c2O)cc1 | -3.6
12 | O=C(N/N=C/c1cc(Br)ccc1O)c1cc(-c2ccc3ccccc3c2)n[nH]1 | -12.9
13 | CSc1cccc(NC(=O)Nc2ccc(Cl)cc2)c1 | -5.2
14 | COc1ccc(C(=O)/C=C/Nc2c(C)n(C)n(-c3ccccc3)c2=O)cc1OC | 5.2
15 | Cc1cc(C)c(S(=O)(=O)NCc2ccc(S(N)(=O)=O)cc2)c(C)c1 | 5.3
16 | COc1ccc(CNC(=O)C(=O)Nc2ccc(Br)cc2)cc1 | 15.7
17 | O=C(c1ccc(Cl)cc1)N1CCC(Cc2ccccc2)CC1 | 16.4
18 | CCOc1ccc(-c2nc(Cc3ccccc3OC)no2)cc1 | -6.4
19 | O=C1NC(=O)/C(=C\c2cc([N+](=O)[O-])ccc2Cl)S1 | 0.7
20 | COc1cc(OC)cc(C(=O)N2CCN(C(=O)COc3ccc4ccccc4c3)CC2)c1 | 36.3
21 | CC(c1ccccc1)N1C(=O)c2ccc(C(=O)c3ccc(C(=O)O)cc3)cc2C1=O (centres undefined) | -11.8
22 | COC(=O)COc1ccc(/C=C2\C(=O)NC(=O)N(C)C2=O)cc1OC | -18.2
23 | N#C/C(=C\Nc1ccccc1)c1nc(-c2cc3cc(Br)ccc3oc2=O)cs1 | 9.8
24 | CCn1c2ccccc2c2cc(CN3CCN(C(=O)c4ccc(OC)c(OC)c4)CC3)ccc21 | 11.6
25 | Clc1ccccc1CN1CCN(N=Cc2ccccc2)CC1 | 6.4
26 | O=C(Nc1ccc([N+](=O)[O-])cn1)c1cc(Cl)ccc1Cl | 1.8
27 | CCOc1ccc(N(CC(=O)Nc2ccc(F)cc2)S(C)(=O)=O)cc1 | 8

Row | SMILES | displacement [%]
28 | COc1cc(CSc2ncn[nH]2)c(OC)cc1CSc1ncn[nH]1 | 6.2
29 | CC(C)(C)NC(=O)C(=O)N/N=C/c1ccc(Cl)cc1 | 9.8
30 | Cc1ccc(C(=O)CCNc2ccc(I)cc2)o1 | 20.1
31 | COc1ccc2occ(C(=O)c3ccccc3)c2c1 | 11.7
32 | Cc1cccc(OCCCc2c(C)n[nH]c2C)c1 | -2.7
33 | Cc1nnc(NC(=O)c2cccc(F)c2)s1 | 16.7
34 | O=c1oc2cc(O)c([N+](=O)[O-])cc2cc1-c1csc(-c2ccc(Cl)cc2)n1 | -11.3
35 | CCCOc1cccc(C(=O)Nc2sc(CCC)cc2C(=O)OC)c1 | -3.4
36 | O=C1CC(c2ccccc2)CC2=C1C(c1cccnc1)Nc1ccc(C(=O)c3ccccc3)cc1N2 (centres undefined) | -7.2
37 | COCCOC(=O)c1ccc(NC(=O)c2ccc(Cl)cc2Cl)cc1 | 3.5
38 | Cc1ccc(N2C(=O)NC(=O)/C(=C\c3ccc(N(C)C)o3)C2=O)cc1 | -134
39 | Cc1ccc(NC(=O)c2ccccc2)cc1F | -6.5
40 | CC1=C(C(=O)Nc2ccc(Cl)cc2)C(c2ccc(Cl)cc2Cl)NC(=O)N1 (centres undefined) | -7.7
41 | COc1cccc(C(=O)NCC2CCCO2)c1 (centres undefined) | 6.5
42 | Cc1nc(C)c(/C(O)=C/c2nc3ccccc3oc2=O)s1 | -1.1
43 | Cc1cc(/C=C2\C(=O)NC(=O)N(c3cccc(F)c3)C2=O)c(C)n1C | 18.4
44 | Cc1cccc(N2C(=O)C(Cl)=C(Nc3ccc(F)cc3)C2=O)c1C | 4.2
45 | CCOC(=O)c1[nH]c(=O)[nH]c1CSCCO | -6.7
46 | COc1ccc(/C=C(/C#N)c2nc(-c3ccc(C)cc3)cs2)o1 | 0.9
47 | CCCOc1ccc(C(=O)Nc2scc(-c3ccc(Cl)cc3)c2C(=O)OC)cc1 | 0.4
48 | O=C(Nc1ccc(I)cc1Cl)c1cccc([N+](=O)[O-])c1 | 5.8
49 | COC(=O)c1ccccc1NC(=O)C1CC(=O)N(C2CCCCC2)C1 (centres undefined) | 1.8
50 | N#Cc1c(NCc2ccccc2)ccnc1SCc1ccccc1 | -4.8
51 | CC(C)CCC(CCC(=O)O)NC(=O)c1ccccc1 (centres undefined) | -0.5
52 | O=C(COc1ccc2ccccc2c1)Nc1cccc(-c2cc3ccccc3oc2=O)c1 | -2.4
53 | CN1CCN(C(=O)c2cnn3c(C(F)(F)F)cc(-c4cccs4)nc23)CC1 | 11.9
54 | COc1ccc(C2/C(=C(\O)c3ccccc3)C(=O)C(=O)N2CCCCCC(=O)O)cc1 (centres undefined) | -4.8
